Test results reported in a compilation of properties of binary mixtures (doi:10.1016/j.molliq.2022.118955).
Some of these densities may be calculated back from excess volumes.

Assay: xn = mol fraction of the nth substance listed
Settings: 293.15 K, 100 kPa

Work on `CCO` + CCCC[n+]1ccn(C)c1.[I-] yielded a mass density (x2 = 0) of 789 kg/m3.
In the case of `CCCC[n+]1ccn(C)c1.[I-]` + CCO, the mass density (x1 = 0.009) is reported as 811 kg/m3, the mass density (x1 = 0.0198) is reported as 832 kg/m3 and the mass density (x1 = 0.0676) is reported as 925 kg/m3. It also gave a mass density (x1 = 0.1006) of 976 kg/m3, a mass density (x1 = 0.148) of 1042 kg/m3 and a mass density (x1 = 0.2076) of 1110 kg/m3. For the same compound, the mass density (x1 = 0.2876) was 1185 kg/m3, the mass density (x1 = 0.4094) was 1274 kg/m3 and the mass density (x1 = 1) was 1481 kg/m3.
`CC[n+]1ccn(C)c1.[I-]` + CCO gave a mass density (x1 = 0.0208) of 831 kg/m3, a mass density (x1 = 0.0766) of 929 kg/m3 and a mass density (x1 = 0.1141) of 997 kg/m3. For the same compound, the mass density (x1 = 0.1621) was 1071 kg/m3, the mass density (x1 = 0.3112) was 1248 kg/m3 and the mass density (x1 = 0.4385) was 1355 kg/m3.
`CCO` + CC[n+]1ccn(C)c1.[I-] showed a mass density (x2 = 0) of 789 kg/m3.
